Data on five substances can be found in article PMC9317594.

Chains of the proteins cited; added tags and fusions are not shown. Lines headed by an entry give the natural chain unless they say otherwise; changes in a name come on top. A line that says so, or that is headed by a name, gives the form on record, which may keep a tag or linker. Residues count along the entry.
SERCA2A (mouse) (O55143-2, form named): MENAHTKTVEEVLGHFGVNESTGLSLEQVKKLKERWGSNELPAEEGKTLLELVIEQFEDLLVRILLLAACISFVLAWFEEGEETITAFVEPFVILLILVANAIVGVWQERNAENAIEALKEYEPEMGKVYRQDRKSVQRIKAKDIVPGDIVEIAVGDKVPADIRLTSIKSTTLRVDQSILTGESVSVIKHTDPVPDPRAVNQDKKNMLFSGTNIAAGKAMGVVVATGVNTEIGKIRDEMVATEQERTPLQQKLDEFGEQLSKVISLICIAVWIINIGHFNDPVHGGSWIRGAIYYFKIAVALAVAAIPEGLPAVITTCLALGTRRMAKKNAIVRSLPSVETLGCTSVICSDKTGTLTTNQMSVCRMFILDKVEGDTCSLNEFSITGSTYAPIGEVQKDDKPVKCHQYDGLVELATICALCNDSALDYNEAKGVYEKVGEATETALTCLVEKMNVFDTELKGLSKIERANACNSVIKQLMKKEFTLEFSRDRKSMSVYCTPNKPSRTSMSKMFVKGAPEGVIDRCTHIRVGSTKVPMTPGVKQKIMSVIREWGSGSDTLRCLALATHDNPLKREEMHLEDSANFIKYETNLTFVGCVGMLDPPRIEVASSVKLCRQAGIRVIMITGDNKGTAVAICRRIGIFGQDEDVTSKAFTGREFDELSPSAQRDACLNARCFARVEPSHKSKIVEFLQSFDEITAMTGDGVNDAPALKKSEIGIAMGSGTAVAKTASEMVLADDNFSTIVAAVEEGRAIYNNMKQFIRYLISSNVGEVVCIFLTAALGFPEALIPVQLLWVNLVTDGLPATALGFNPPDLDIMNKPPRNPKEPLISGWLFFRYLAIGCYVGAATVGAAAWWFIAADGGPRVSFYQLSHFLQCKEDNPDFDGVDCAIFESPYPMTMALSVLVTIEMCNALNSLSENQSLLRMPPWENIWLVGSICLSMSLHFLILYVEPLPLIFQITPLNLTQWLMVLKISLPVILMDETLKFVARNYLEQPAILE
UniProt Q8R429: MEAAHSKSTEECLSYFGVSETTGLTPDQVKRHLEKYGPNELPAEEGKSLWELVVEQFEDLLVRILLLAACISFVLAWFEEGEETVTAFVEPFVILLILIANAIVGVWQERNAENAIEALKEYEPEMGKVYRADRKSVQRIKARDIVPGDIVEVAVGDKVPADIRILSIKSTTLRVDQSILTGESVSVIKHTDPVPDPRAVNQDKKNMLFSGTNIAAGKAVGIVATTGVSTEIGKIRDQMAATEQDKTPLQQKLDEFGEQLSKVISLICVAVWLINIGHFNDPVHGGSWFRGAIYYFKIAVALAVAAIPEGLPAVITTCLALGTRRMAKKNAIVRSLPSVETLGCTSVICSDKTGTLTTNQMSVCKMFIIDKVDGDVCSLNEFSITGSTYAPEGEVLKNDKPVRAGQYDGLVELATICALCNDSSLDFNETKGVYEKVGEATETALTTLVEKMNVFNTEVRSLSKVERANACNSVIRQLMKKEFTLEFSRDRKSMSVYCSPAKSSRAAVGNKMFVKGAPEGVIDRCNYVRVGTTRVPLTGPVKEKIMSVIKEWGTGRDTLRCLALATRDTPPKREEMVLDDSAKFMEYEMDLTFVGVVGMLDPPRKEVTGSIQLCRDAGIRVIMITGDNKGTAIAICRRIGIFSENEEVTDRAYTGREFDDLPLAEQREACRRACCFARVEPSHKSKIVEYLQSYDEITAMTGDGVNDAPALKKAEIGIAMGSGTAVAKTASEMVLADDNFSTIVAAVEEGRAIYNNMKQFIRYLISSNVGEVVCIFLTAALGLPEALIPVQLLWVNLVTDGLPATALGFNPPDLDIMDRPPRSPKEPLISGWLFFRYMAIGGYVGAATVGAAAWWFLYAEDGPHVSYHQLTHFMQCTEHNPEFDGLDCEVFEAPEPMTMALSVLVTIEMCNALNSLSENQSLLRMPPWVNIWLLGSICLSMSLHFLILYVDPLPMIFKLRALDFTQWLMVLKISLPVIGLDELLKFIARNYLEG
UniProt P70414, residues 33-970: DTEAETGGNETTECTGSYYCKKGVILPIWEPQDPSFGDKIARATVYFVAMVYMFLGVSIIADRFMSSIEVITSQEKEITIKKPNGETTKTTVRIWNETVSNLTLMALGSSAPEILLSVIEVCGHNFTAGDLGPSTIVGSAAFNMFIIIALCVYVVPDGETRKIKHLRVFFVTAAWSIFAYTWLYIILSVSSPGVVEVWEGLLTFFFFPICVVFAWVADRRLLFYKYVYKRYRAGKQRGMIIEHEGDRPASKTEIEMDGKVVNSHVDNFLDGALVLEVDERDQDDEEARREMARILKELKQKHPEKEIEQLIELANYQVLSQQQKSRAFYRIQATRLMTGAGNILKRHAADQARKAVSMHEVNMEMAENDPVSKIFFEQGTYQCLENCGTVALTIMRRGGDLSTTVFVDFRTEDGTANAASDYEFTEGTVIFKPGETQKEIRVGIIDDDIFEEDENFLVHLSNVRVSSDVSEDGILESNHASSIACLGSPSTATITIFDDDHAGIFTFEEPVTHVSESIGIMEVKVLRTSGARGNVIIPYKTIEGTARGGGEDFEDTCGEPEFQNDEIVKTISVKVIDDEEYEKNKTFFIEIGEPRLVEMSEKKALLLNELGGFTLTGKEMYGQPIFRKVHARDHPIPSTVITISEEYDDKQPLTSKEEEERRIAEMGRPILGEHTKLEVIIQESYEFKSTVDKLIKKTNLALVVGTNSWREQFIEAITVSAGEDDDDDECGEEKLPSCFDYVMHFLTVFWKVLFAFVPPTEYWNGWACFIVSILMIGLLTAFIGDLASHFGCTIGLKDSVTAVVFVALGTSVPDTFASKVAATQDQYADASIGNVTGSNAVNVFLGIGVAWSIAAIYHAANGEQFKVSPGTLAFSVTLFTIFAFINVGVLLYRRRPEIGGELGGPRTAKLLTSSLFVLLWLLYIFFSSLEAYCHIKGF
SERCA3 (mouse) (Q64518-1, form named): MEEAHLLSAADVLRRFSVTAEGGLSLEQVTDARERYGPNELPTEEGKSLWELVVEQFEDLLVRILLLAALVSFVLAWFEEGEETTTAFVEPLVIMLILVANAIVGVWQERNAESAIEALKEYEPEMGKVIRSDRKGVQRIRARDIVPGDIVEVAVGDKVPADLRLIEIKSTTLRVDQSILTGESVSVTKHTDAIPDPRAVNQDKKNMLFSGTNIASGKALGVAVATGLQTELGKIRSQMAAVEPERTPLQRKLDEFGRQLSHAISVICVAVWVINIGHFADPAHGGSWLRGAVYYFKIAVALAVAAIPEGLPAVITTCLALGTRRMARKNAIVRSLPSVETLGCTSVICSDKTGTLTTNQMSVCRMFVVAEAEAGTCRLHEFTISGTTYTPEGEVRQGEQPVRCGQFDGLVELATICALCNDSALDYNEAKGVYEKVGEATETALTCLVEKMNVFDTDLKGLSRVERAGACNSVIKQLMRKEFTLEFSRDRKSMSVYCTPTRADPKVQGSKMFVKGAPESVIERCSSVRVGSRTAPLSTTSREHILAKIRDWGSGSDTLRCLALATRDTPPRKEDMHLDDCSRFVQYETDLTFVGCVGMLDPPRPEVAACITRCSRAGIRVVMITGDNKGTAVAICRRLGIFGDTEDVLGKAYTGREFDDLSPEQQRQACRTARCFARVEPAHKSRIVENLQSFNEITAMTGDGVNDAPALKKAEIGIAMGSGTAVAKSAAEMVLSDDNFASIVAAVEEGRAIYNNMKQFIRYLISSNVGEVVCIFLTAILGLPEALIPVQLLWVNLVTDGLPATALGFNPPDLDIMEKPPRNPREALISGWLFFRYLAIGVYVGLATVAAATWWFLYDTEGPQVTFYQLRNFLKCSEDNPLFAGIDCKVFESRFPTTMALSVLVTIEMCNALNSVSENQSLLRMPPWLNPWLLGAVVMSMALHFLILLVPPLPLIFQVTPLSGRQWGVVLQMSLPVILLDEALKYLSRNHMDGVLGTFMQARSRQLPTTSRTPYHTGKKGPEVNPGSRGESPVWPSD

The target in the assay is T1, mitochondrial Na+-Ca2+ exchanger NCLX (mouse) (mouse) (UniProt Q925Q3).
T1 sequence: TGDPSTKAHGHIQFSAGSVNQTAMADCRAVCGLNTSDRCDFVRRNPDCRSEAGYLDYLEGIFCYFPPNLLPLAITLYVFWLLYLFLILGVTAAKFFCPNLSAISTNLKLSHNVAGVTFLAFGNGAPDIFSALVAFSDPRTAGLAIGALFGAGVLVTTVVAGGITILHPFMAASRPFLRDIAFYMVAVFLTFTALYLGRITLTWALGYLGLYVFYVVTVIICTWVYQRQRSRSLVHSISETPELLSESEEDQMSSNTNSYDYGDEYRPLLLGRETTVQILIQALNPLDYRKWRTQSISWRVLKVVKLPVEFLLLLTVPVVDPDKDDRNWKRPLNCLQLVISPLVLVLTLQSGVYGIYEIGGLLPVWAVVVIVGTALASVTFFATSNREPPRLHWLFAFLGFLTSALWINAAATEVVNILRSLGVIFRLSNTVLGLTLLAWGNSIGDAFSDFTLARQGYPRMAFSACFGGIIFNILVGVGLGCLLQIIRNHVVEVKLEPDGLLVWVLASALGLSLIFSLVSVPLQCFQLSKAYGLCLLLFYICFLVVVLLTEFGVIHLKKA
Put plainly: split reporter; mKGN- and mKGC-fusion proteins (CoralHue Fluo-chase Kit, MBL) co-transfected into HEK293 cells, eight pairs of tag orientations (i-viii) for each combination; confocal images two days after transfection, fluorescence intensity/area against background cells.

No constants are given. Whether binding was seen depends on the method and setting. Binding seen in cells or lysates may run through a third protein. Some entries that bind do so weakly or less than the wild type.

Regarding “SERCA2B (mouse) (from UniProt O55143-1 1-1044)”, the binding entry is on record as “binds”.

Regarding “SERCA1 (mouse) (from UniProt Q8R429 1-994)”, the binding entry is listed as “binds”.

Turning to “plasma membrane Na+-Ca2+ exchanger (NCX) 1 (mouse) (from UniProt P70414 33-970)”, the binding result was “no binding”.

Regarding “SERCA3 (mouse) (from UniProt Q64518-1 1-1038)”, the binding result is listed as “binds”.

With “SERCA2A (mouse) (from UniProt O55143-2 1-998)”, the binding entry is “binds”.
